Reference: the supplement of paper PMC3724861
Some of the results follow.

The sequences below were run on T1, Caupolican (Caup) homeodomain DNA-binding domain (assay: PBM E-score (8-mer, recovered from the published 9-mer minima) (E-score (dimensionless, -0.5 to 0.5)); Drosophila protein; higher = stronger relative binding preference, active = 0.31 or more).
T1 sequence: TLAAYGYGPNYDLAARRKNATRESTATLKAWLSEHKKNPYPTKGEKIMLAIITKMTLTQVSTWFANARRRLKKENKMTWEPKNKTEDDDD
Method in brief: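 Caup's homeodomain DNA-binding domain (residues 214-303) was made by in vitro transcription and translation and applied at 100 nM to custom-designed protein binding microarrays. Each value is an enrichment score that gives relative binding preference for a short DNA word, with higher meaning stronger. The 8-mer values were recovered from published 9-mer scores, each of which was the minimum of its two constituent 8-mer scores. A cutoff of 0.31 marks candidate sites.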

| Sequence | PBM E-score |
| --- | --- |
| AGTGTTGA | inactive: 0.0384 |
| AGGGGCAA | inactive: -0.106 |
| AGTCTAGG | inactive: -0.0306 |
| ATCCATTC | inactive: 0.0344 |
| AAAGCGAA | inactive: -0.0738 |
| CATTGGGG | inactive: -0.0653 |
| CAGGGTTC | inactive: -0.112 |
| AAACAAGG | inactive: 0.231 |
| AATACCCA | inactive: 0.0274 |
| CGTACTGC | inactive: -0.0592 |
| GGTATTAC | inactive: 0.171 |
| GGGACCGA | inactive: -0.122 |
| AGTTCCAA | inactive: 0.0569 |
| AATTGCAC | inactive: 0.0835 |
| GTAAGACA | inactive: 0.153 |
| TATTTAAA | inactive: 0.132 |
| GCAACGGA | inactive: -0.0514 |
| TAAGCAAA | inactive: 0.0585 |
| CAGTACCG | inactive: 0.0729 |
| GTTTGAGA | inactive: 0.0472 |
| ACAATCTC | inactive: 0.0902 |
| AACTCACC | inactive: -0.0396 |
| CGTAGAAC | inactive: -0.0877 |
| ATAGAAGC | inactive: 0.00935 |
| AGGATGTA | ≥ 0.305 |

| Sequence | PBM E-score |
| --- | --- |
| ACTGGCCG | inactive: -0.194 |
| GACGTTTA | inactive: 0.0351 |
| CTGTCTAC | inactive: 0.0659 |
| GAAAAATC | inactive: -0.0429 |
| CCGCGTTC | inactive: -0.0728 |
| GACGATGA | inactive: 0.0505 |
| AAAATCGG | inactive: -0.0552 |
| ACCTGTAT | inactive: 0.222 |
| GTCCTGGA | inactive: -0.0617 |
| GCCCGCGA | inactive: -0.207 |
| CAGGGGGC | inactive: -0.266 |
| AGCGGTAG | inactive: -0.0759 |
| CAAATATA | inactive: 0.147 |
| CAGGACGC | inactive: -0.0476 |
| CATATCGG | inactive: 0.0413 |
| ACAGGTGA | inactive: 0.195 |
| AGGGTCCG | inactive: -0.24 |
| AGTTCCCA | inactive: -0.0512 |
| CTTCTCCA | inactive: -0.184 |
| CGCGATGC | inactive: -0.272 |
| CCGAGTAG | inactive: -0.0123 |
| ATCCCGGG | inactive: -0.0372 |
| CAGCTGAA | inactive: -0.03 |
| AGGAATTG | inactive: 0.121 |
| GGCCGCGA | inactive: -0.26 |

| Sequence | PBM E-score |
| --- | --- |
| CACCTAGC | inactive: -0.146 |
| GTGATATA | inactive: 0.152 |
| ACTGAGTC | inactive: -0.0541 |
| ATGAAGCC | inactive: -0.016 |
| CGCACAAC | inactive: 0.0805 |
| TCTTCACA | inactive: 0.0795 |
| ATCTCCGA | ≥ -0.0458 |
| CCAACACG | inactive: 0.237 |
| GCCTGTCC | inactive: -0.0708 |
| CGGACGAG | inactive: -0.143 |
| GTACCGCA | inactive: -0.0137 |
| AATGAATA | inactive: 0.14 |
| ACTAACCT | inactive: 0.15 |
| CTATACCC | inactive: -0.104 |
| CTTACCAA | inactive: 0.0972 |
| TGTCACAA | inactive: 0.303 |
| GACGCTAC | inactive: -0.00575 |
| ACGGAAAG | inactive: -0.0385 |
| GATGCTGA | inactive: -0.0674 |
| ACGACCCC | inactive: -0.273 |
| CTACTAGC | inactive: 0.0844 |
| GGCCCCCA | inactive: -0.338 |
| CTCAGCGC | inactive: -0.145 |
| GACTTACC | inactive: -0.0473 |
| AACAATTG | inactive: 0.126 |

| Sequence | PBM E-score |
| --- | --- |
| GGGGGGTA | inactive: -0.28 |
| ACTCAAAC | inactive: 0.114 |
| CAGATGAC | inactive: 0.00101 |
| AACGGCAT | ≥ 0.077 |
| ACAACAGT | inactive: 0.205 |
| AATCTCGG | inactive: -0.0518 |
| ATCCGCGC | inactive: -0.102 |
| TCCGCAGA | inactive: -0.0726 |
| AAACCTGG | inactive: 0.0158 |
| CACGAGCA | inactive: 0.0519 |
| CGTGAGAC | inactive: -0.0591 |
| GATCAACA | inactive: 0.214 |
| AGCCCCGG | inactive: -0.248 |
| GGCCTCAA | inactive: -0.145 |
| CCCGCGGC | inactive: -0.226 |
| AAATCACG | inactive: 0.0601 |
| CCCTCAGC | inactive: -0.214 |
| ATGTTACG | active: 0.326 |
| ACTCGCAA | ≥ 0.0477 |
| CAGCCTCC | inactive: -0.292 |
| AGAGGAAG | inactive: -0.148 |
| GGGCGCGA | inactive: -0.267 |
| CTCCAAGC | inactive: -0.157 |
| CATACATG | active: 0.44 |
| AAGTCTTG | inactive: 0.12 |

| Sequence | PBM E-score |
| --- | --- |
| CGGGGCTA | inactive: -0.177 |
| CTTTACTC | inactive: -0.0119 |
| ACGCCCGG | inactive: -0.241 |
| GGGTTTTA | inactive: -0.0316 |
| CACCCTCA | inactive: -0.135 |
| ATAAAGTA | inactive: 0.163 |
| AAAAGCTA | inactive: -0.0372 |
| TCCTTAAA | inactive: 0.031 |
| CTGCTCCC | inactive: -0.108 |
| AGTACCCA | inactive: 0.0315 |
| TGTGCGAA | inactive: -0.0814 |
| AACATCTT | inactive: 0.246 |
| AGCATCGA | inactive: -0.0143 |
| AGGATAAT | inactive: 0.053 |
| ACCAGGCG | inactive: -0.164 |
| GAAGTCTA | inactive: -0.0315 |
| ATGCAAGA | inactive: 0.0828 |
| TCCCACAA | inactive: -0.0657 |
| CGGTAGTC | inactive: -0.108 |
| GCAATGAC | inactive: 0.0198 |
| AAAACATT | inactive: 0.252 |
| CCATTAAG | inactive: -0.0422 |
| CGTCGAGA | inactive: -0.0457 |
| AATAACTA | inactive: 0.192 |
| GACGTGGC | inactive: -0.109 |

| Sequence | PBM E-score |
| --- | --- |
| CGGAGTAA | inactive: -0.0184 |
| AGAAATAT | inactive: 0.134 |
| CGGGACTC | inactive: -0.204 |
| ATCCCTGG | inactive: -0.0903 |
| ATTAAAAT | inactive: 0.127 |
| TAATAAGA | inactive: 0.13 |
| CTTATTCA | inactive: 0.051 |
| AATTGGAT | inactive: 0.0994 |
| CAACTCCA | inactive: -0.0718 |
| AACATCGC | inactive: 0.201 |
| GCTTTGGA | inactive: 0.0316 |
| ACGTCGCG | inactive: -0.04 |
| GTCATAAA | inactive: 0.164 |
| GACGATCA | inactive: -0.00416 |
| CAAGTAGG | inactive: -0.00819 |
| GACCTCTA | inactive: -0.142 |
| AAACACGC | inactive: 0.248 |
| ATAGTTTC | inactive: 0.00403 |
| ACTAGATA | inactive: 0.114 |
| CAATGTGG | inactive: 0.0734 |
| CAGTACGC | inactive: -0.00729 |
| CTGACTCA | inactive: -0.0032 |
| CTGAAGCC | inactive: -0.145 |
| CCTTTACG | inactive: 0.00316 |
| AATGGAAT | inactive: 0.128 |

| Sequence | PBM E-score |
| --- | --- |
| GATGTCTA | inactive: 0.23 |
| CCTAGGAA | inactive: -0.0215 |
| ATAAAGTG | inactive: 0.166 |
| ACCTTCAT | inactive: -0.0549 |
| GGCCATCA | inactive: -0.0779 |
| ACGCTAAA | inactive: 0.0305 |
| GATCTGAA | inactive: -0.0249 |
| CAGTCGAA | inactive: -0.00079 |
| AAGTTATT | inactive: 0.145 |
| ATTTTGTC | inactive: 0.189 |
| GGCGAGAC | inactive: -0.158 |
| ATCCATCA | ≥ 0.0954 |
| GGTCAGAC | inactive: -0.0993 |
| GCCTCTAA | inactive: -0.115 |
| CGATAACC | inactive: 0.0347 |
| CCTTTCCA | inactive: -0.0963 |
| CTTATCCC | inactive: -0.0209 |
| CGTCGGGC | inactive: -0.238 |
| GAACTAAC | inactive: -0.0656 |
| AATACTCC | inactive: 0.0605 |
| CAGTGCCC | inactive: -0.151 |
| AACTGGAT | inactive: 0.0596 |
| AATCTATC | inactive: 0.122 |
| ACTGAGGC | inactive: -0.11 |
| GAAGCGTA | inactive: -0.0769 |

| Sequence | PBM E-score |
| --- | --- |
| CGGTTATA | inactive: 0.0519 |
| CTGCCCGC | inactive: -0.16 |
| GCACGGGA | inactive: -0.0997 |
| GACCTTTA | inactive: -0.0271 |
| CGAATCCA | inactive: 0.0564 |
| ATTTAAGC | ≥ 0.0678 |
| GTGCATTA | inactive: 0.0902 |
| GCAGCCTA | inactive: -0.131 |
| TGTATACA | active: ≥ 0.356 |
| AAACATTG | inactive: 0.183 |
| AGTCGAGC | inactive: -0.101 |
| AGTAATTC | inactive: 0.122 |
| AGAGAATA | inactive: 0.0241 |
| GGCACCTA | inactive: -0.136 |
| AGCATCTA | inactive: 0.0509 |
| CACATCGG | inactive: 0.0641 |
| AACATCGG | inactive: 0.166 |
| AATAAGGG | inactive: 0.00741 |
| CTATCCAA | inactive: 0.0902 |
| ACACCCAG | inactive: 0.0381 |
| TCCCTTCA | ≥ -0.0331 |
| ATAGAGCA | ≥ 0.0478 |
| GTCAGGTA | inactive: 0.116 |
| GTATGTGA | inactive: 0.193 |
| CGTAAACA | inactive: 0.192 |

| Sequence | PBM E-score |
| --- | --- |
| CTGTCCTC | inactive: -0.0392 |
| GACGTAGC | inactive: -0.0265 |
| ACGCTACG | inactive: -0.0675 |
| CATATGTA | active: 0.334 |
| ATATTCTA | inactive: 0.182 |
| TAGTGATA | ≥ 0.138 |
| CTACTTCC | inactive: 0.0612 |
| AAATGGGC | inactive: -0.128 |
| CGAGGTAC | inactive: 0.104 |
| GGACCAAC | inactive: -0.0642 |
| TAGCTTCA | inactive: -0.0401 |
| CGACATGA | active: 0.395 |
| AGCTGACG | inactive: -0.0449 |
| CTTCATTA | inactive: 0.00457 |
| GGTGATGA | inactive: 0.0207 |
| CAACACCA | inactive: 0.179 |
| TACGAGCA | inactive: 0.142 |
| CGCTACCA | inactive: -0.0582 |
| AAACGAAC | inactive: 0.101 |
| GGAGATGA | inactive: 0.00358 |
| ACAAACAC | inactive: 0.301 |
| GTTGCTGA | inactive: 0.0952 |
| CCTTTTCC | inactive: -0.124 |
| AGGGATAC | inactive: 0.0399 |
